The values that follow come from patent US6706740B2, “Fungicidal heterocyclic aromatic amides and their compositions, methods of use and preparation” (Dow AgroSciences LLC, priority 1999, dated 2004).

In the first test the test system is Plasmopara viticola—PLASVI. The experiment in a line: whole plant or invertebrate. The settings on record: 100 ppm, grape, 24 hour protectant; control of fungal infection vs untreated plants. It is filed as in vivo.
As to `COc1ccnc(C(=O)NC(COC(=O)CCc2ccccc2)C(=O)OC(C)COC(=O)C(C)C)c1O` (stereo not shown) [Compound 359], the “PLASVI in vivo 1 Day Protectant” value was “+ (25-74% control of fungal infection)”.

Staying with this test, now noted: Plasmopara, 24 h, read-out: PLASVI in vivo 1 Day Protectant, 100 ppm, 24 hour protectant, grape; control of fungal infection vs untreated plants.
Take `COc1ccnc(C(=O)N[C@H]2CO[C@H](C(C)Cc3ccc(C(C)(C)C)cc3)OC2)c1O` (stereo partly shown) [Compound 316]: the pest or weed control at 100 ppm is 25 to 74%.
On the same count and under the same terms, the result for `O=C(NCC1CCCCC1)c1ncccc1O` [Compound 202] reads less than 25%.
Same read-out and setting: the result for `CC(C)C(=O)OC1CCC(NC(=O)c2ncccc2O)CC1` (stereo not shown) [Compound 210] reads less than 25%.
As to `COc1ccnc(C(=O)NC2CC(C)(C)C(=O)C(C)(C)C2)c1O` [Compound 266], the pest or weed control at 100 ppm was less than 25%.
On to `COc1ccnc(C(=O)NC2C3CC4C(C3Cl)C42)c1O` (stereo not shown) [Compound 304], for which the pest or weed control at 100 ppm fell in the range of 25 to 74%.
In the case of `COc1ccnc(C(=O)N[C@H]2CC3OC2[C@H](C)[C@@H](OCc2ccccc2)[C@H]3C)c1O` (stereo partly shown) [Compound 321], the pest or weed control at 100 ppm is less than 25%.
Turning to `O=C(NCc1ccccc1Cl)c1ncccc1O` [Compound 218], the pest or weed control at 100 ppm fell in the range of 25 to 74%.
Turning to `COc1ccnc(C(=O)N[C@H]2CC[C@H](Oc3ccc(C(F)(F)F)cc3)CC2)c1O` [Compound 270], the pest or weed control at 100 ppm was 25 to 74%.
In the case of `COc1ccnc(C(=O)N[C@H]2CC[C@@H](Oc3ccc(C(F)(F)F)cc3)CC2)c1O` [Compound 271], the pest or weed control at 100 ppm fell in the range of 25 to 74%.
Still for that read-out and setting: the result for `O=C(Nc1cccc(Cl)c1)c1ncccc1O` [Compound 212] reads 25 to 74%.
The same measure, in the same setting: the result for `CC(NC(=O)c1ncccc1O)c1ccccc1` (stereo not shown) [Compound 229] reads less than 25%; that for `COc1ccnc(C(=O)NC2COC(C)C2)c1O` (stereo not shown) [Compound 310], 25 to 74%; that for `COc1ccnc(C(=O)N[C@H]2CO[C@](C)(C(C)CC3=C(C)CCCC3(C)C)OC2)c1O` (stereo partly shown) [Compound 319], 25 to 74%.
Consider `C[C@H](NC(=O)c1ncccc1O)c1cccc2ccccc12` [Compound 232], for which the pest or weed control at 100 ppm is less than 25%.
Same read-out and setting: the figure for `O=C(Nc1ccc(Cl)cc1)c1ncccc1O` [Compound 213] is 25 to 74%; for `COc1ccnc(C(=O)N[C@H]2CO[C@@](C)(C(C)CC3=C(C)CCCC3(C)C)OC2)c1O` (stereo partly shown) [Compound 318] it is 25 to 74%; for `COc1ccnc(C(=O)N[C@H]2CC3CC2[C@@H](COCc2cccc(C(F)(F)F)c2)C3)c1O` (stereo partly shown) [Compound 295] it is 25 to 74%.
On the same count and under the same terms, the result for `COc1cccc(CNC(=O)c2ncccc2O)c1OC` [Compound 227] reads less than 25%.
In the case of `O=C(N[C@H]1CC2CC1[C@@H]1CCC[C@H]21)c1ncccc1O` (stereo partly shown) [Compound 206], the pest or weed control at 100 ppm was less than 25%.
With `COc1ccnc(C(=O)NC2c3ccccc3CC2(C)C)c1O` (stereo not shown) [Compound 284], the pest or weed control at 100 ppm was less than 25%.

The same test, now with this note: Plasmopara, 24 h, read-out: PLASVI in vivo 1 Day Protectant, 100 ppm, grape, 24 hour protectant, % control of fungal infection vs untreated plants.
On to `COc1ccnc(C(=O)N[C@H]2COC(=O)[C@H](Cc3ccccc3)[C@@H](OC(=O)C(C)C)[C@H](C)OC2=O)c1OC(=O)c1cnc(Cl)c(Cl)c1` [Compound 670], for which the pest or weed control at 100 ppm was less than 25%.
Still for that read-out and setting: the figure for `COc1ccnc(C(=O)N[C@H]2COC(=O)[C@H](Cc3ccccc3)[C@@H](OC(=O)C(C)C)[C@H](C)OC2=O)c1OC(=O)c1cccs1` [Compound 674] is less than 25%.
`COCCC(=O)Oc1c(OC)ccnc1C(=O)N[C@H]1COC(=O)[C@H](Cc2ccccc2)[C@@H](OC(=O)CCOC)[C@H](C)OC1=O` [Compound 705]: the pest or weed control at 100 ppm was less than 25%.

The test is the same for the next values; noted with them: Plasmopara, 24 h, read-out: PLASVI in vivo 1 Day Protectant, 100 ppm, grape, 24 hour protectant; control of fungal infection vs untreated plants.
As for `COc1ccnc(C(=O)NC2COC(=O)CC3(CCCCC3)CC(=O)OC2)c1O` [Compound 380], the pest or weed control at 100 ppm is 25 to 74%.
Consider `COc1ccnc(C(=O)Nc2ccc(Oc3ccc(OC(=O)C(C)C)cc3)cc2)c1O` [Compound 436], for which the pest or weed control at 100 ppm was less than 25%.
In the case of `COc1ccnc(C(=O)NC(COC(=O)CC(C)OC(=O)CCc2ccccc2)C(=O)OC(C)C)c1O` (stereo not shown) [Compound 353], the pest or weed control at 100 ppm was 25 to 74%.
The same measure, in the same setting: the result for `COc1ccnc(C(=O)Nc2ccc(Oc3ccccc3Cl)cc2)c1O` [Compound 441] reads less than 25%.
The same measure, in the same setting: the figure for `COc1ccnc(C(=O)Nc2ccc(Oc3ccccc3C)cc2)c1O` [Compound 415] is less than 25%; for `COc1ccnc(C(=O)Nc2ccc(C(=O)Oc3cccc(C(F)(F)F)c3)cc2)c1O` [Compound 451] it is less than 25%.
On the same count and under the same terms, the result for `COc1ccc(Oc2cccc(NC(=O)c3nccc(OC)c3O)c2)cc1` [Compound 432] reads less than 25%; that for `COc1ccnc(C(=O)Nc2ccc(Oc3ccc(C(F)(F)F)cc3)cc2)c1O` [Compound 425, 3-HYDROXY-4-METHOXY-N-(4-(4-TRIFLUOROMETHYLPHENOXY)PHENYL)-PYRIDINE-2-CARBOXAMIDE], less than 25%; that for `COc1ccnc(C(=O)Nc2ccccc2Oc2ccc(C#N)cc2)c1O` [Compound 419], less than 25%.
`COc1ccnc(C(=O)N[C@H]2COC(=O)[C@H](Cc3ccccc3)[C@@H](OC(=O)C3CCCC3)[C@H](C)OC2=O)c1O` [Compound 391]: the pest or weed control at 100 ppm was less than 25%.
For the compound `COc1ccnc(C(=O)N[C@H]2C[C@@H](O[Si](C)(C)C(C)(C)C)O[C@@H](C)[C@@H]2OCc2ccccc2)c1O` [Compound 328], the pest or weed control at 100 ppm fell in the range of 25 to 74%.
Same read-out and setting: the result for `COC(=O)C(COC(=O)COCc1ccccc1)NC(=O)c1nccc(OC)c1O` (stereo not shown) [Compound 346] reads 25 to 74%; that for `COc1ccnc(C(=O)N[C@H]2CC(=O)OCC(NC(=O)OC(C)(C)C)COC2=O)c1O` (stereo partly shown) [Compound 379], 25 to 74%.
As to `COc1ccnc(C(=O)Nc2ccc(Oc3ccc(C)cc3)cc2)c1O` [Compound 417], the pest or weed control at 100 ppm was less than 25%.
Still for that read-out and setting: the result for `COc1ccnc(C(=O)N[C@@H]2C[C@@H](O[Si](C)(C)C(C)(C)C)O[C@@H](C)[C@@H]2OCc2ccccc2)c1O` [Compound 327] reads less than 25%.
Still for that read-out and setting: the result for `COc1ccc(Oc2ccccc2NC(=O)c2nccc(OC)c2O)cc1` [Compound 429] reads less than 25%; that for `COC(=O)C(CO)NC(=O)c1nccc(OC)c1O` (stereo not shown) [Compound 340], less than 25%.
As to `COc1ccnc(C(=O)Nc2ccc(Sc3ccc(C(F)(F)F)cc3)cc2)c1O` [Compound 446], the pest or weed control at 100 ppm is less than 25%.
As for `COc1ccc(Oc2ccc(NC(=O)c3nccc(OC)c3O)cc2)cc1` [Compound 435], the pest or weed control at 100 ppm was less than 25%.
For `COc1ccnc(C(=O)Nc2cc(C)c(OC(=O)c3ccccc3)c(C)c2)c1O` [Compound 456], the pest or weed control at 100 ppm lay in the range of 25 to 74%.
The same measure, in the same setting: the result for `COc1ccnc(C(=O)N[C@H]2COC(=O)[C@H](Cc3ccccc3)[C@@H](OC(=O)OC(C)C)[C@H](C)OC2=O)c1O` [Compound 401] reads less than 25%.

The test is the same for the next values; noted with them: Plasmopara, 24 h, read-out: PLASVI in vivo 1 Day Protectant, grape plants, 100 ppm, 24 hour protectant; control of fungal infection vs untreated plants.
Turning to `CC1(C)CC(NC(=O)c2cscc2O)CC(C)(C)C1` [Compound 554, 4-HYDROXYTHIOPHENE-N-(3,3,5,5-TETRAMETHYLCYCLOHEXYL)-3-CARBOXAMIDE], the pest or weed control at 100 ppm was less than 25%.
On to `COc1cc(Br)nc(C(=O)N[C@H]2COC(=O)[C@H](Cc3ccccc3)[C@@H](OC(=O)C3CCCCC3)[C@H](C)OC2=O)c1O` [Compound 501], for which the pest or weed control at 100 ppm was less than 25%.
On the same count and under the same terms, the result for `Cc1nc(O)c(C(=O)N[C@H]2COC(=O)[C@H](Cc3ccccc3)[C@@H](OC(=O)C(C)C)[C@H](C)OC2=O)cc1Cl` [Compound 531] reads less than 25%; that for `CC(=O)Oc1cccnc1C(=O)N[C@H]1COC(=O)[C@H](Cc2ccccc2)[C@@H](OC(=O)C(C)C)[C@H](C)OC1=O` [Compound 568], less than 25%; that for `COc1ccnc(C(=O)Nc2ccc(Oc3ccc(C(F)(F)F)cn3)cc2)c1O` [Compound 462], less than 25%.
Still for that read-out and setting: the result for `COc1ccnc(C(=O)N[C@H]2C[C@@H](C(F)(F)F)C[C@@H](C(F)(F)F)C2)c1OC(C)=O` [Compound 576] reads less than 25%; that for `O=C(Nc1cccc(Oc2ccccc2C(F)(F)F)c1)c1nc(Br)ccc1O` [Compound 494], less than 25%.
Regarding `O=C(Nc1cccc(Oc2ccccc2)c1)c1cccnc1O` [Compound 521], the pest or weed control at 100 ppm was less than 25%.
Take `CC(C)C(=O)O[C@H]1[C@H](C)OC(=O)[C@@H](NC(=O)c2cnccc2O)COC(=O)[C@@H]1Cc1ccccc1` [Compound 503]: the pest or weed control at 100 ppm was 25 to 74%.
Still for that read-out and setting: the figure for `O=C(Nc1ccc(Oc2cccc(C(F)(F)F)c2)cc1)c1nc(Br)ccc1O` [Compound 498] is less than 25%.
Take `COc1ccnc(C(=O)Nc2ccc(Oc3cc(Cl)nc(C(F)(F)F)c3)cc2)c1O` [Compound 467]: the pest or weed control at 100 ppm is less than 25%.
Same read-out and setting: the figure for `O=C(Nc1ccccc1Oc1ccccc1)c1cccnc1O` [Compound 520] is less than 25%.
Still for that read-out and setting: the figure for `CC(C)C(=O)O[C@H]1[C@H](C)OC(=O)[C@@H](NC(=O)c2conc2O)COC(=O)[C@@H]1Cc1ccccc1` [Compound 561] is 25 to 74%.
On the same count and under the same terms, the figure for `CC(C)C(=O)O[C@H]1[C@H](C)OC(=O)[C@@H](NC(=O)c2ccncc2O)COC(=O)[C@@H]1Cc1ccccc1` [Compound 513] is 25 to 74%; for `O=C(NCc1ccc(Cl)c(Cl)c1)c1cccnc1O` [Compound 517] it is 25 to 74%; for `CC1(C)CC(NC(=O)c2nscc2O)CC(C)(C)C1` [Compound 549] it is 25 to 74%.
As for `CC(NC(=O)c1ccncc1O)c1ccc(Oc2ccccc2)cc1` (stereo not shown) [Compound 512], the pest or weed control at 100 ppm lay within 25 to 74%.
The same measure, in the same setting: the result for `CC(=O)Oc1cccnc1C(=O)NC1CCC(OC(C)=O)CC1` (stereo not shown) [Compound 564] reads less than 25%; that for `O=C(NC(Cc1ccccc1)c1ccccc1)c1cccnc1O` (stereo not shown) [Compound 519], less than 25%.
